# Measurements as given in PubChem BioAssay (NCATS).
# Where “and” joins values, the source holds several entries; their conditions need not be identical. Equal entries are not always repeated. Inconclusive means that the source gave no clear call. Such entries were picked first, then a sample of the others. A potency beside an inconclusive call is a rough fit, not a confirmed value. Calls of active or inactive are those of the source. Calls follow the shape of the dose curve; as a rule, active = well fitted curve in the direction sought with a large enough effect; inconclusive = small, poorly fitted or top-dose-only effect, or another doubt; inactive = no such curve, though single readings can be large; an effect the other way counts as inactive or inconclusive.
# Tests used:
# [1] = qHTS assay to identify small molecule inhibitors of chordoma cells - UCH-1 (AID 1259355); also: series mostly up to about 46 µM; nearly all actives have a fitted effect of over 55% in size
# Outline: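 Seed 800 cells per well; incubate overnight at 37 C, 5% CO2. Add test compounds (15 concentrations), then the auranofin–topoisomerase-agent combination. Incubate 48hr, add CellTiter-Glo, wait 30min, read luminescence.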
# [2] = qHTS assay for cell viability of HEK293 cells (AID 743288); settings: ATP luminescence (CellTiter-Glo), 18 h; also: nearly all actives have a fitted effect of over 50% in size
# Outline: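 Parental HEK293 cells were seeded at 2,000 cells/well, rested at least 5 h at 37 C, then exposed to compounds in DMSO for 18 h at 37 C. Viability was read as ATP-dependent luciferase luminescence after 30 min at room temperature.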
# [3] = qHTS assay to identify small molecule inhibitors of chordoma cells - UCH-2 (AID 1259356)
# [4] = P-glycoprotein substrates identified in KB-8-5-11 adenocarcinoma cell line, qHTS therapeutic library screen (AID 1346987); also: nearly all actives have a fitted effect of over 65% in size
# Outline: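 KB-8-5-11: colchicine-selected sub-line of KB-3-1 over-expressing P-gp; assay medium lacked colchicine. 72 h drug exposure at 37 degree C, CellTiter-Glo.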
# [5] = NS1 protein of Zika virus - qHTS assay to identify small molecule inhibitors in human HEK 293 cells (AID 1347053); also: nearly all actives have a fitted effect of over 55% in size
# Outline: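 Inhibition of NS1 expression was scored in HEK 293 cells given compound 1 h ahead of MR766 virus (MOI = 0.5). Following 24 h at 37 C, two anti-NS1 antibodies generated a TR-FRET signal, scaled between uninfected and infected controls.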
# [6] = qHTS Assay for Identifying Gametocytocidal Compounds (AID 743244);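 as to max response: % is scaled to controls: 0 for no effect and ±100 for the full control effect; actives lower the fluorescent signal which means gametocytes are killed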; settings: P. falciparum 3D7 stage III-V gametocytes, alamarBlue, 72 h; max response: stronger effect = lower value
# Outline: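 Viability read-out was resazurin reduction (alamarBlue, 24 h) measured at Ex 525/Em 598 nm. Beforehand, late-stage (III-V) 3D7 P. falciparum gametocytes at 20,000 cells/well were incubated with compound 72 h at 37C under 5% CO2.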
# Potency is read from the fitted curve at half-maximal effect; tags tell the direction and shape of the fitted curve.
SMILES,Potency [1],Potency [2],Potency [3],Potency [4],Potency [5],Potency [6],max response [6]
CCCCCCCCCCCCCCCCCC(=O)OCC(O)CO (stereo not given),"inconclusive: 35.5 µM [cytotoxic, partial curve, poor fit]",,,,,,
Nc1c2ccccc2nc2ccccc12,"inconclusive: 12.6 µM [cytotoxic, full curve, poor fit]","inconclusive: 17.8 µM [cytotoxic, full curve]","inconclusive: 18.3 µM [cytotoxic, partial curve, poor fit]",active: 13 µM,"inconclusive: 28.2 µM [inhibitor, single point]",,
CN1CCCN(C(c2ccccc2)c2ccc(Cl)cc2)CC1 (stereo not given),"inconclusive: 12.6 µM [cytotoxic, partial curve, poor fit]",,"inconclusive: 25.9 µM [cytotoxic, partial curve, poor fit]","inconclusive: 23.1 µM [inhibitor, partial curve]",,,
C=CCNC1=C2C[C@@H](C)C[C@H](OC)[C@H](O)[C@@H](C)/C=C(\C)[C@H](OC(N)=O)[C@@H](OC)/C=C\C=C(/C)C(=O)NC(=CC1=O)C2=O,"inconclusive: 0.199 µM [cytotoxic, full curve]",,"inconclusive: 0.517 µM [cytotoxic, full curve]",active: 16.4 µM,,active: 2.82 µM,
COc1ccc(C[C@H](N)C(=O)N[C@H]2[C@@H](O)[C@H](n3cnc4c(N(C)C)ncnc43)O[C@@H]2CO)cc1,active: 11.2 µM,,"inconclusive: 8.2 µM [cytotoxic, full curve]","inconclusive: 29.1 µM [inhibitor, single point]",,active: 1.05 µM,
CC[C@@]1(O)C(=O)OCc2c1cc1n(c2=O)Cc2cc3c([N+](=O)[O-])cccc3nc2-1,active: 0.794 µM,,"inconclusive: 0.517 µM [cytotoxic, full curve]",,,,inactive: 2.02%
CN1CCN(CCC=C2c3ccccc3Sc3ccc(S(=O)(=O)N(C)C)cc32)CC1,"inconclusive: 31.6 µM [cytotoxic, single point]",,"inconclusive: 25.9 µM [cytotoxic, single point]",active: 23.1 µM,,"inconclusive: 35.5 µM [inhibitor, single point]",
CCCCCCCCCCCCCC[N+](C)(C)C,"inconclusive: 14.1 µM [cytotoxic, partial curve, poor fit]",,"inconclusive: 29.1 µM [cytotoxic, single point]","inconclusive: 18.4 µM [inhibitor, single point]","inconclusive: 28.2 µM [inhibitor, single point]",active: 14.1 µM,
CCCCCCCCCCCCCCCC[N+](C)(C)Cc1ccccc1,"inconclusive: 14.1 µM [cytotoxic, partial curve]",,"inconclusive: 29.1 µM [cytotoxic, single point]",,"inconclusive: 35.5 µM [inhibitor, single point]",,
Oc1c(Cl)cc(Cl)c2cccnc12,"inconclusive: 11.2 µM [cytotoxic, partial curve, poor fit]",,active: 23.1 µM,"active: 1.46 µM and inconclusive: 37.2 µM [inhibitor, single point]","inconclusive: 22.4 µM [inhibitor, partial curve, poor fit] and inconclusive: 33.2 µM [inhibitor, single point]",,
Nc1ccc2cc3ccc(N)cc3nc2c1,"inconclusive: 11.2 µM [cytotoxic, full curve, poor fit]",,"inconclusive: 13 µM [cytotoxic, full curve]",,"inconclusive: 35.5 µM [inhibitor, single point]",active: 12.6 µM,
